# From the supplement of paper PMC6609913
# Structures can show the parent of a compound that is named as a salt. ± gives the standard deviation of the averaged measurements. Whole data set: some 1,300 compounds, median “normalised cell viability” near 1, cut for the lowest 2% near 0.14. The list shows a part of the results.
# Test system: V-C8 (BRCA2-deficient hamster cells)
# Assay: normalised cell viability (fraction of plate median); higher = more viable cells (less toxic)
# Conditions: 5 µM
# Outline: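 Library drugs, held as 10 mM stocks in DMSO, were diluted to 5 μM in 100 μl medium and added to 96-well plates of V-C8 hamster cells, either lacking BRCA2 or with BRCA2 restored, 24 h after seeding. Plates ran for 3 days (screen 1) or 6 days (screen 2), alongside solvent-only wells. Viability came from a resazurin readout, median-plate normalised, as the mean of triplicate wells.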
Compound,normalised cell viability (treatment time: 3 days),normalised cell viability (treatment time: 6 days)
Nc1ccc(/N=N/c2ccccc2)c(N)n1 [Phenazopyridine hydrochloride],0.978 ± 0.05,0.984 ± 0.079
CN(C)CCOC(=O)C(c1ccccc1)C1(O)CCCC1 (stereo not given) [Cyclopentolate hydrochloride],0.935 ± 0.12,1.04 ± 0.018
Nc1nc(/C(=C/CC(=O)O)C(=O)N[C@@H]2C(=O)N3C(C(=O)O)=CCS[C@H]23)cs1 [Ceftibuten],0.923 ± 0.068,0.969 ± 0.074
OCCN1CCN(CC/C=C2/c3ccccc3Sc3ccc(Cl)cc32)CC1 [Zuclopenthixol hydrochloride],0.605 ± 0.014,0.61 ± 0.032
CCc1nn(CCCN2CCN(c3cccc(Cl)c3)CC2)c(=O)n1CCOc1ccccc1 [Nefazodone HCl],0.764 ± 0.036,0.8488 ± 0.0051
C[N+](C)(CCOc1ccccc1)Cc1ccccc1.O=C([O-])c1cc2ccccc2cc1O [Bephenium hydroxynaphthoate],1.01 ± 0.042,0.999 ± 0.033
CC(NCCc1ccc(O)cc1)C(O)c1ccc(O)cc1 (stereo not given) [Ritodrine hydrochloride],1.05 ± 0.048,1.09 ± 0.088
CCC1(C)CC(=O)NC1=O (stereo not given) [Ethosuximide],0.918 ± 0.067,1.07 ± 0.058
NC1CCN(c2c(F)cc3c(=O)c(C(=O)O)cn(C4CC4)c3c2Cl)C1 (stereo not given) [Clinafloxacin],0.408 ± 0.034,0.286 ± 0.0081
CCCNC(C)(C)COC(=O)c1ccccc1 [Meprylcaine hydrochloride],1 ± 0.042,1.25 ± 0.47
CCCc1nn(C)c2c(=O)[nH]c(-c3cc(S(=O)(=O)N4CCN(C)CC4)ccc3OCC)nc12 [Sildenafil],1.08 ± 0.039,0.985 ± 0.078
CC(=O)Oc1ccc(C(c2ccc(OC(C)=O)cc2)c2ccccn2)cc1 [Bisacodyl],1.1 ± 0.039,0.99 ± 0.026
CN1CCN2c3ccccc3Cc3ccccc3C2C1 (stereo not given) [Mianserine hydrochloride],1.07 ± 0.063,1.1 ± 0.044
N[C@@H](Cc1ccc(O)c(O)c1)C(=O)O [Levodopa],0.937 ± 0.029,0.931 ± 0.035
O=C(O)CCC(=O)c1ccc(-c2ccccc2)cc1 [Fenbufen],0.976 ± 0.034,0.98 ± 0.06
C[N+](C)(C)CCOC(N)=O [Carbachol],1.03 ± 0.064,1.03 ± 0.058
CC(C)(C)NC[C@H](O)COc1cccc2c1CCCC2=O [(-) -Levobunolol hydrochloride],1 ± 0.042,1.1 ± 0.19
Nc1ncn(C2OC(CO)C(O)C2O)c(=O)n1 (stereo not given) [Azacytidine-5],0.793 ± 0.025,0.895 ± 0.033
O=C(NC(Cc1cc(=O)[nH]c2ccccc12)C(=O)O)c1ccc(Cl)cc1 (stereo not given) [Rebamipide],0.982 ± 0.04,1.05 ± 0.06
O=C1c2c(O)ccc(O)c2C(=O)c2c(NCCNCCO)ccc(NCCNCCO)c21 [Mitoxantrone dihydrochloride],0.143 ± 0.0017,0.116 ± 0.011
CCOC(=O)C1=C(C)NC(C)=C(C(=O)OC)C1c1cccc(Cl)c1Cl (stereo not given) [Felodipine],0.83 ± 0.088,0.765 ± 0.015
C[C@H](CCC(=O)O)[C@H]1CC[C@H]2[C@@H]3C(=O)C[C@@H]4CC(=O)CC[C@]4(C)[C@H]3CC(=O)[C@]12C [Dehydrocholic acid],1.22 ± 0.056,1.18 ± 0.031
CCCCC(=O)N(Cc1ccc(-c2ccccc2-c2nnn[nH]2)cc1)[C@H](C(=O)O)C(C)C [Valsartan],0.96 ± 0.038,0.986 ± 0.052
OC(CCN1CCCCC1)(c1ccccc1)c1ccccc1 [Pridinol methanesulfonate salt],0.91 ± 0.055,0.914 ± 0.05

Compound,normalised cell viability (treatment time: 3 days),normalised cell viability (treatment time: 6 days)
CCN(CC)CCNC(=O)c1cc(Br)c(N)cc1OC [Bromopride],1.01 ± 0.054,1.05 ± 0.009
CC(C)NNC(=O)c1ccncc1 [Iproniazide phosphate],0.993 ± 0.012,0.993 ± 0.08
"O=C1c2cccc(O)c2C(=O)c2c(O)cccc21 [1,8-Dihydroxyanthraquinone]",0.838 ± 0.065,0.78 ± 0.021
CCOC(=O)C1=C(C)NC(C)=C(C(=O)OC)C1c1cccc([N+](=O)[O-])c1 (stereo not given) [Nitrendipine],0.963 ± 0.0098,0.971 ± 0.024
CCn1cc(C(=O)O)c(=O)c2cc(F)c(N3CCNCC3)cc21 [Norfloxacin],1.01 ± 0.073,1.12 ± 0.036
O=C(c1ccc(OCCN2CCCCC2)cc1)c1c(-c2ccc(O)cc2)sc2cc(O)ccc12 [Raloxifene hydrochloride],0.808 ± 0.031,0.803 ± 0.089
NS(=O)(=O)c1cc2c(cc1C(F)(F)F)NC(Cc1ccccc1)NS2(=O)=O (stereo not given) [Bendroflumethiazide],0.999 ± 0.015,1.06 ± 0.062
CC(CN1c2ccccc2Sc2ccccc21)N(C)C (stereo not given) [Promethazine hydrochloride],0.956 ± 0.019,0.922 ± 0.058
Nc1nc(N)nc(-c2cc(Cl)ccc2Cl)n1 [Irsogladine maleate],0.154 ± 0.0044,0.167 ± 0.0032
CCN1CCCC1CNC(=O)c1cc(S(=O)(=O)CC)c(N)cc1OC (stereo not given) [Amisulpride],1.05 ± 0.044,1.07 ± 0.046
COc1cc(N)c(Cl)cc1C(=O)NC1CCN(Cc2ccccc2)CC1 [Clebopride maleate],0.916 ± 0.042,0.955 ± 0.031
COc1ccccc1OCCNCC(O)COc1cccc2[nH]c3ccccc3c12 (stereo not given) [Carvedilol],0.799 ± 0.037,0.69 ± 0.039
CC(C)c1nc(CN(C)C(=O)N[C@H](C(=O)N[C@@H](Cc2ccccc2)C[C@H](O)[C@H](Cc2ccccc2)NC(=O)OCc2cncs2)C(C)C)cs1 [Ritonavir],1.13 ± 0.073,1.07 ± 0.097
CC(C)[C@H]1CC[C@H](C(=O)N[C@H](Cc2ccccc2)C(=O)O)CC1 [Nateglinide],1.05 ± 0.068,1.06 ± 0.084
CCCCOc1ccc(OCCCN2CCOCC2)cc1 [Pramoxine hydrochloride],1.06 ± 0.053,0.995 ± 0.019
CC1CCc2cc(F)cc3c(=O)c(C(=O)O)cn1c23 (stereo not given) [Flumequine],1.03 ± 0.025,0.967 ± 0.043
O=C(NCC1CCCCN1)c1cc(OCC(F)(F)F)ccc1OCC(F)(F)F (stereo not given) [Flecainide acetate],1.04 ± 0.085,1.08 ± 0.047
COC(=O)Nc1nc2cc(C(=O)c3ccc(F)cc3)ccc2[nH]1 [Flubendazol],0.148 ± 0.019,0.16 ± 0.0047
CC(C)(C)NC(=O)[C@@H]1CN(Cc2cccnc2)CCN1C[C@@H](O)C[C@@H](Cc1ccccc1)C(=O)N[C@H]1c2ccccc2C[C@H]1O [Indinavir sulfate],1.1 ± 0.079,1.04 ± 0.027
O=C(O[C@@H]1C[C@@H]2C[C@H]3C[C@H](C1)N2CC3=O)c1c[nH]c2ccccc12 [Dolasetron mesilate],0.963 ± 0.027,1.04 ± 0.032
CC(C)(C)NCC(O)c1ccc(O)c(CO)c1 (stereo not given) [Salbutamol],1.07 ± 0.084,1.033 ± 0.0092
Cn1c(=O)c2c(ncn2C)n(C)c1=O [Caffeine],0.962 ± 0.14,1.06 ± 0.061
Cc1c(OCC(F)(F)F)ccnc1C[S+]([O-])c1nc2ccccc2[nH]1 (stereo not given) [Lansoprazole],1.01 ± 0.035,0.973 ± 0.052
O=C(O)CNC(=O)C(CS)Cc1ccccc1 (stereo not given) [Thiorphan],0.919 ± 0.046,0.959 ± 0.1

Compound,normalised cell viability (treatment time: 3 days),normalised cell viability (treatment time: 6 days)
Cc1onc(-c2ccccc2)c1C(=O)N[C@@H]1C(=O)N2[C@@H]1SC(C)(C)[C@@H]2C(=O)O [Oxacillin sodium],1.06 ± 0.018,0.831 ± 0.064
CN(C)CCCC1(c2ccc(F)cc2)OCc2cc(C#N)ccc21 (stereo not given) [Citalopram Hydrobromide],1.05 ± 0.028,1.02 ± 0.041
CCCC(CCC)C(=O)O [Valproic acid],1.05 ± 0.059,0.977 ± 0.033
CN(C)CCC(c1ccc(Cl)cc1)c1ccccn1 (stereo not given) [Chlorpheniramine maleate],1.2 ± 0.21,1.071 ± 0.0096
COc1cc(N)c(Cl)cc1C(=O)NC1CCN(CCCOc2ccc(F)cc2)CC1OC (stereo not given) [Cisapride],0.889 ± 0.018,0.894 ± 0.066
COC1=CC(=O)C[C@@H](C)[C@]12Oc1c(Cl)c(OC)cc(OC)c1C2=O [Griseofulvin],0.754 ± 0.17,0.858 ± 0.045
CCN(CCCc1ccccc1)CCCc1ccccc1 [Alverine citrate salt],0.983 ± 0.042,0.993 ± 0.06
CCN(CC)C(=O)N1CCN(C)CC1 [Diethylcarbamazine citrate],1.09 ± 0.014,1.04 ± 0.057
O=P(O)(O)C(O)(Cc1cccnc1)P(=O)(O)O [Risedronic acid monohydrate],1.1 ± 0.043,1.04 ± 0.033
CCCC(C(=O)OCCN(CC)CC)(c1ccccc1)c1ccccc1 [Proadifen hydrochloride],0.887 ± 0.037,0.821 ± 0.082
C=CC[N@@+]12CC[C@@]34c5ccccc5N5/C=C6/[C@H]7C[C@H]8[C@@]9(CC[N@@+]8(CC=C)C/C7=C/CO)c7ccccc7N(/C=C(/[C@@H](C[C@@H]31)/C(=C\CO)C2)[C@H]54)[C@@H]69 [Alcuronium chloride],0.939 ± 0.13,1.03 ± 0.079
Clc1ccc(COC(Cn2ccnc2)c2ccc(Cl)cc2Cl)cc1 (stereo not given) [Econazole nitrate],0.938 ± 0.028,0.98 ± 0.023
Clc1ccccc1C(c1ccccc1)(c1ccccc1)n1ccnc1 [Clotrimazole],0.292 ± 0.014,0.328 ± 0.029
O=C(O)c1cc(=O)c2c(OCC(O)COc3cccc4oc(C(=O)O)cc(=O)c34)cccc2o1 [Cromolyn disodium salt],1.01 ± 0.029,1.04 ± 0.024
CCCCOc1ccc(CC(=O)NO)cc1 [Bufexamac],0.85 ± 0.06,0.895 ± 0.041
CC(=O)OC(C)C[N+](C)(C)C (stereo not given) [Methacholine chloride],1.15 ± 0.038,1.01 ± 0.046
C=CCc1ccccc1OCC(O)CNC(C)C (stereo not given) [Alprenolol hydrochloride],0.927 ± 0.037,0.858 ± 0.087
NC[C@H]1CC[C@H](C(=O)O)CC1 [Tranexamic acid],0.98 ± 0.089,1.05 ± 0.062
Cc1ccc(O)c([C@H](CCN(C(C)C)C(C)C)c2ccccc2)c1 [Tolterodine tartrate],1.02 ± 0.047,1 ± 0.029
CN(C)CCC(c1ccccc1)c1ccccn1 (stereo not given) [Pheniramine maleate],1.06 ± 0.03,0.98 ± 0.031
Cc1c(O)cccc1C(=O)N[C@@H](CSc1ccccc1)[C@H](O)CN1C[C@H]2CCCC[C@H]2C[C@H]1C(=O)NC(C)(C)C [Nelfinavir mesylate],0.814 ± 0.032,0.874 ± 0.043
CCSc1ccc2c(c1)N(CCCN1CCN(C)CC1)c1ccccc1S2 [Thiethylperazine dimalate],0.932 ± 0.029,1.1 ± 0.35
